Reference: the supplement of paper PMC10126150
Sequences with one replicate were seen in a single cluster, so their values are uncertain.

Test system: ATP
Assay: switch fluorescence ratio, 500 uM ATP over buffer (Cy3 cluster intensity, sum of 5 cycles each) (fold (ratio)); higher = stronger signal-on switching upon ATP binding; sequences stand for … in TCGTCGGCAGCGTCAGATGTGTATAAGAGACAGTTTTTTTTTTTTTTTTTTTTTTTTT…TC
Settings: aptamer strand: ATP DNA aptamer (quencher-CACCTGGGGGAGTATTGCGGAGGAAGG + anchor), 100 nM annealed; ATP concentration: 500 uM; one replicate
How it was run: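 Values give the fluorescence ratio for each switch-domain sequence, averaged from per-cluster ratios of summed target-cycle to summed buffer-cycle Cy3 intensity. The Cy3-labelled switching-strand clusters sat on a modified Illumina MiSeq flow-cell, were annealed to 100 nM quencher-labelled ATP aptamer, and were imaged in selection buffer, then after 15 min with 500 uM ATP at 22 °C. Five cycles ran with NaOH stripping and re-annealing between them, and clusters outside 100-1000 RFU were excluded.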
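Also: ATP exposure 15 min at 22 °C before imaging.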

Sequence | switch fluorescence ratio
GGGATACAGA | 1.05
GCTTTCACCA | 1.03
GTTCCGTCGA | 1.03
GAAAGGCAGC | 0.963
TTTCAGTGAA | 1.01
AGTTTGCCCC | 0.961
GCAAGGAGAG | 1.03
GGGAACCCTT | 0.974
CACAGCTCCG | 1.03
CTAATACTCG | 1.34
GGTGCCGAGG | 0.972
CGTCGTTGTC | 1.01
CGGCAATTTG | 1.04
CTTGAGTACG | 1.03
ATGGTTTCTA | 0.953
CCGGATTGGC | 1.12
TCTGGCGTTT | 0.996
CCAATAGTAA | 1.2
GACCCAACGA | 1.31
CCATACCTCA | 1.05
CGGCCCTCTT | 0.977
CTATGGTTGA | 0.992
CGTCGGAGCT | 1.07
CTCCCCGAT | 1.71
TCATTCTAAG | 0.985
GAGAGATGGT | 0.971

Sequence | switch fluorescence ratio
ATGATTCAT | 0.984
CACACGATTA | 1.1
AGGTTAGCGG | 0.943
GTGGCTTACA | 1.02
TGATGTTACT | 1.02
GCCGGTAGGA | 0.962
CGGTTAATGT | 1
TGATTGGTAT | 1.09
AGATCATACG | 1.07
GTTAGAAAAG | 0.992
TTTTTACAGC | 0.998
GTGTTAAAGA | 1.01
CATATATGCC | 1
GAAATGGATT | 0.981
TACTACCTAA | 1.12
TAGCCCCGGA | 1.02
TTAGGGCCAT | 0.992
CTTATGGGTT | 1.01
GCTAAATATA | 0.996
TGGGACGAAT | 0.971
GTGATTCTG | 0.98
GAATAATTGT | 0.928
TTATTACCTG | 1.02
CAATCGTTGT | 1
ATCGGGGATG | 1.01
TATAAGGCCC | 1

Sequence | switch fluorescence ratio
CGTATAGAAG | 1.06
CATTGCACCC | 1.07
GGACTCTTGG | 0.989
TATCGATAAG | 1
CTAGAGAAAG | 1.01
CGAATCGCAG | 1.1
GGTGCAGAGG | 0.978
TAAGAAATTT | 1.03
ACAAGGTCAG | 1.04
GTCTGGTTTG | 0.96
TTTACCAGCT | 1.06
TGCAAAACCG | 1.05
TTGACCGTCG | 1.02
GGGAATTCGT | 1.01
TATTGGTGCG | 0.958
AACGGTGATG | 0.967
AACTCTTTTT | 1.02
GACATACTTC | 1.4
AGTTCGATAA | 1
AGCGGGGACT | 1.04
TTACTCTGGA | 0.998
CCTCTTTTTA | 1.1
TGGGGTTTC | 0.946
TGTTATAATA | 1.04
CGCTGATTCC | 1.29
GCCCCCAGGG | 1.37

Sequence | switch fluorescence ratio
ACGTAATCGA | 1.27
ATATTGTACT | 0.999
TATACCGGAG | 1.11
TGATTGTTGC | 0.995
CCGGTTTATT | 0.982
AGCTTATAGC | 0.969
GATAGTTCCG | 1.03
TATAACTAA | 0.965
GTTGGTACAA | 1.01
CTAAAGCTGG | 1
AATGTACGTA | 1.06
ATAACAGGGA | 0.977
CTGTCAATAT | 1.58
GAAAGTATTC | 0.977
GTTTATAGCG | 1.03
ACAGCCCAAC | 1.14
CCAGTCGATA | 1.07
TGGGGTGATG | 0.968
CTCTGCCCCT | 1.2
GGTATTCCAT | 1.03
ACTTTTTGA | 1
TTGGGGGCG | 1.01
TGTTTTAGTC | 0.987
ATTAGGGGCT | 0.976
GGGCACGTTA | 1.05
ATTCTCAGTA | 0.939

Sequence | switch fluorescence ratio
GGGAAACGTT | 1.04
TGTACGGGAC | 1.3
TAGGTGAAGC | 0.984
TCCGGTTTCT | 0.985
CAGTATAAGT | 1.01
GACCGGTTTT | 0.975
TACGAAACAC | 1.35
AAACATCCA | 1.02
CACGGGACTG | 1.21
ATGGTATA | 1.03
CCATCCTGTA | 1.03
GCCAATCATG | 0.959
CGAGTCTGTA | 0.997
CAGATTCCGC | 1.34
TCCTCGACCG | 1.02
CCCCAATT | 1.07
TTTCAGGCCC | 1.01
TTAATGTCCA | 0.967
ATGGCAACTT | 1.04
AACTGTTCAC | 1.06
AGCCCCATCA | 0.95
GCCAAAGATG | 0.973
AGGGCGGCGT | 1.06
GCGCAAGGAG | 1.06
ACTTGACT | 1.19
GGTACTTTAT | 0.994

Sequence | switch fluorescence ratio
GCTGGCTCAT | 0.979
AGCGGCAGGC | 0.96
GTCTAATTTA | 1.01
ATTCTGGAAG | 0.995
GGTAATGAAT | 1.01
GTAGGCCAAC | 1.02
ATTGTTATG | 1.08
GTGTATATAA | 0.942
TCTCAATGTG | 1.03
ATCCTCCATG | 1.14
GACCGGGCAA | 1.05
CACATATAT | 1.06
TTGGTCGT | 0.923
ACGGGCGGGA | 1.11
ACGGGTTAGT | 1.03
ACTGTCCCCT | 1.01
TTGATTACG | 1.06
TTATGAGGAG | 0.989
CCATGGGAGG | 0.97
GCTAGTAGGT | 1
ATTTGATATT | 1.14
GTTGTCACTT | 0.962
TCTAAGTATC | 1.02
TAGATCCGCG | 1.07
TCGCCAAAAG | 1.1
TATAACTTG | 1.01

Sequence | switch fluorescence ratio
CTAACTCTGT | 1
TAAAGGTGAG | 0.938
GCGCCATCTT | 1.01
AAGATTGAGG | 0.964
CAGAGCCTGG | 0.947
CTGTGCAGC | 1.13
TTCCTGAGA | 1.09
AAGGAGTGCG | 0.992
TAGTCAAGGT | 1.03
GTTAGTGGGT | 0.984
ATACCCACGA | 1.25
GAGATAATAG | 1.01
TTTCTTTGGA | 1.01
ACATGATTAC | 1.11
AGGTTTAATG | 0.997
TAACAAGGAA | 1.06
AAGATAGTAG | 0.982
CCCATAGTAG | 1.03
AATGAGGTCA | 1.04
GGTTTACCCA | 0.959
GAGCTTTTCG | 1.03
TATGGGGTCG | 0.963
GGCGTCGGGG | 0.989
CTCGGATCTC | 1.05
GAATGCGAAA | 0.985
CAAGATGCCC | 0.982

Sequence | switch fluorescence ratio
GGAAAGGTAG | 1.03
GCATGTTGCG | 0.993
AGGAGCACAC | 1.48
GATGCGGCAG | 0.978
ATCGGGCCGC | 0.983
CTTTTTACTA | 1.03
CTTCTACTTA | 1.01
CCGGACATGC | 3.06
GTGTTGCG | 1.12
TCAGGGCTGG | 0.991
GGAGTCCCCC | 0.974
TGGATAATTG | 1.07
ATCCATGGAG | 1
GCATTGAAA | 1.02
TCCCTGTGGT | 1.02
CTCGGAGGAC | 1.12
GAACACAGTC | 0.984
GAAGCGGCTA | 1.02
CAATTTTGAA | 0.966
